Where a chain is given by its changes, count along the chain named.
B1: C001L13F8 (Fc fusion)
chain: HSQGTFTSDYSKYLDSRRAQDFVQWLMNTGGGGSGGGGSGGGGSA[human IgG4 Fc with S228P N297A (EU numbers) omitted here]
B2: CG214L13F8 (Fc fusion)
chain: B1 chain with R17Q, R18A, T29G
B3: CG267L13F8 (Fc fusion)
chain: B1 chain with R18A, T29G
B4: C308L13F8 (Fc fusion)
chain: B1 chain with S16E, R17Q, R18A
B5: C224L13F8 (Fc fusion)
chain: B1 chain with S16E, R18A
B6: CG308L13F8 (Fc fusion)
chain: B1 chain with S16E, R17Q, R18A, T29G
B7: C319L13F8 (Fc fusion)
chain: B1 chain with S16G, R17Q, R18A, T29G
B8: C214L13F8 (Fc fusion)
chain: B1 chain with R17Q, R18A
B9: C303L13F8 (Fc fusion)
chain: B1 chain with S16E, R17E, R18A
B10: CG303L13F8 (Fc fusion)
chain: B1 chain with S16E, R17E, R18A, T29G
B11: CG283L13F8 (Fc fusion)
chain: B1 chain with S16E, R18A, T29G
B12: C498L13F4 (Fc fusion)
chain: HSQGTFTSDYSEYLDSERARDFVAWLEAGGGGGGSGGGGSGGGGSA[human IgG1 Fc with changes omitted here]
B13: C503L15F2 (Fc fusion)
chain: HSQGTFTSDYSKYLEEEAVRLFIQWLMNTGSGGGGSGGGGSGGGGS[human IgG1 Fc with changes omitted here]
B14: C756L20F4 (Fc fusion)
chain: HSQGTFTSDYSKYLDEQAAQDFVQWLMNTKRNRNNIAGGGGSGGGGSGGGGSGGGGSGGGGSA[human IgG1 Fc with changes omitted here]
B15: C353 L13F3L10M4 (Fc fusion)
chain: HSQGTFTSDYSKYLDEQAAQDFVQWLMNGPSSGAPPSGGGGSGGGGSGGGGSA[human IgG1 Fc with changes omitted here]GGGGAGGGGAGGGGAHPIPDSSPLLQFGGQVRQRYLYTDDAQQTEAHLEIREDGTVGGAADQSPESLLQLKALKPGVIQILGVKTSRFLCQRPDGALYGSLHFDPEACSFRERLLEDGYNVYQSEAHGLPLHCPGNKSPHRDPAPRGPCRFLPLPGLPPALPEPPGILAPQPPDVGSSDPLAMVGGSQGRSPSYES
B16: C498 L13F4L13M4 (Fc fusion)
chain: HSQGTFTSDYSEYLDSERARDFVAWLEAGGGGGGSGGGGSGGGGSA[human IgG1 Fc with changes omitted here]GGGSGGGGSGGGGSAHPIPDSSPLLQFGGQVRQRYLYTDDAQQTEAHLEIREDGTVGGAADQSPESLLQLKALKPGVIQILGVKTSRFLCQRPDGALYGSLHFDPEACSFRERLLEDGYNVYQSEAHGLPLHCPGNKSPHRDPAPRGPCRFLPLPGLPPALPEPPGILAPQPPDVGSSDPLAMVGGSQGRSPSYES
B17: C503 L15F2L9M5 (Fc fusion)
chain: HSQGTFTSDYSKYLEEEAVRLFIQWLMNTGSGGGGSGGGGSGGGGS[human IgG1 Fc with changes omitted here]GGGSGGGGSGGGGSHPIPDSSPLLQFGGQVRQRYLYTDDAQQTEAHLEIREDGTVGGAEDQSPESLLQLKALKPGVIQILGVKTSRFLCQRPDGALYGSLHFDPEACSFRERLLEDGYNVYQSEAHGLPLHCPGNKSPHRDPAPRGPCRFLPLPGLPPALPEPPGILAPQPPDVGSSDPLSMVGGSQGRSPSYES
B18: C708 L10F4L14M7 (Fc fusion)
chain: HSQGTFTSDYSKYLDSEAAQDFVQWLMNTKRNRNNIAGGGGAGGGGAGGGGA[human IgG1 Fc with changes omitted here]GGGAGGGGAGGGGASHPIPDSSPLLQFGGQVRQEYLYTDDAQQTEAHLEIREDGTVGGAADQSPESLLQLKALKPGVIQILGVKTSRFLCQRPDGALYGSLHFDPEACSFRERLLEDGYNVYQSEAHGLPLHLPGNKSPHRDPAPRGPARFLPLPGLPPALPEPPGILAPQPPDVGSSDPLSMVGGSQGRSPSYES
B19: C743 L18F7L8M10 (Fc fusion)
chain: HSQGTFTSDYSKYLDSQEAQDFVQWLMNTKRNRNNIAGSGGGGSGGGGSGGGGSGGGGS[human IgG4 Fc with S228P N297A (EU numbers) omitted here]GGSGGGAGGGGSDSSPLLQFGGQVRQRYLYTDDAQQTEAHLEIREDGTVGGAADQSPESLLQLKALKPGVIQILGVKTSRFLCQRPDGALYGSLHFDPEACSFRERLLEDGYNVYQSEAHGLPLHCPGNKSPHRDPAPRGPCRFLPLPGLPPALPEPPGILAPQPPDVGSSDPLAMVGGSQGRSPSYAS
B20: C756 L20F4L10M8 (Fc fusion)
chain: HSQGTFTSDYSKYLDEQAAQDFVQWLMNTKRNRNNIAGGGGSGGGGSGGGGSGGGGSGGGGSA[human IgG1 Fc with changes omitted here]GGGAGGGGAGGGGAHPIPDSSPLLQFGGQVRQRYLYTDDAQQTEAHLEIREDGTVGGAADQSPESLLQLKALKPGVIQILGVKTSRFLCQRPDGALYGSLHFDPEACSFRERLLEDGYNVYQSEAHGLPLHLPGNKSPHRDPAPRGPARFLPLPGLPPALPEPPGILAPQPPDVGSSDPLSMVGGSQGRSPSAAS
B21: C731 L5F2L9M9 (Fc fusion)
chain: HSQGTFTSDLSKQMDSRAAQDFIEWLKNTKRNRNNIAGGGGSGGGGS[human IgG1 Fc with changes omitted here]GGGSGGGGSGGGGSHPIPDSSPLLQFGGQVRQRYLYTDDAQQTEAHLEIREDGTVGGAADQSPESLLQLKALKPGVIQILGVKTSRFLCQRPDGALYGSLHFDPEACSFRERLLEDGYNVYQSEAHGLPLHCPGNKSPHRDPAPRGPCRFLPLPGLPPALPEPPGILAPQPPDVGSSDPLAMVGGSQGRSPSYAS
B22: F9L10W (Fc fusion)
chain: [human IgG4 Fc with S228P F234A L235A (EU numbers) omitted here]GGGGAGGGGAGGGGAHPIPDSSPLLQFGGQVRQRYLYTDDAQQTEAHLEIREDGTVGGAADQSPESLLQLKALKPGVIQILGVKTSRFLCQRPDGALYGSLHFDPEACSFRELLLEDGYNVYQSEAHGLPLHLPGNKSPHRDPAPRGPARFLPLPGLPPALPEPPGILAPQPPDVGSSDPLSMVGPSQGRSPSYAS
B23: F9L10M2 (Fc fusion)
chain: [human IgG4 Fc with S228P F234A L235A (EU numbers) omitted here]GGGGAGGGGAGGGGAHPIPDSSPLLQFGGQVRQRYLYTDDAQQTEAHLEIREDGTVGGAADQSPESLLQLKALKPGVIQILGVKTSRFLCQRPDGALYGSLHFDPEACSFRERLLEDGYNVYQSEAHGLPLHCPGNKSPHRDPAPRGPCRFLPLPGLPPALPEPPGILAPQPPDVGSSDPLSMVGGSQGRSPSYES

Each binder was assayed against T1, human GLP-1 receptor (human, UniProt P43220 24-463) (assay: cell-based or functional assay).
For B1, the “GLP-1R agonist activity EC50 (luciferase reporter)” value (from here on “GLP-1R agonist activity EC50”) was 380 nM.
B2 was tested, and the “GLP-1R agonist activity EC50” value was 360 nM.
B3 was tested, and the “GLP-1R agonist activity EC50” value was 361 nM.
For B4, the “GLP-1R agonist activity EC50” value was 409 nM.
With B5 the “GLP-1R agonist activity EC50” value was 335 nM.
For B6, the “GLP-1R agonist activity EC50” value was 350 nM.
B7 was tested, and the “GLP-1R agonist activity EC50” value was 378 nM.
B8 was tested, and the “GLP-1R agonist activity EC50” value was 438 nM.
B9 was tested, and the “GLP-1R agonist activity EC50” value was 389 nM.
B10 was tested, and the “GLP-1R agonist activity EC50” value was 452 nM.
In the case of B11, the “GLP-1R agonist activity EC50” value is reported as 330 nM.

Each binder was assayed against Glucagon receptor (assay: cell-based or functional assay).
B1 was tested, and the “GCGR agonist activity EC50 (luciferase reporter)” value (shortened to “GCGR agonist activity EC50”) was 7.98 nM.
B2 was tested, and the “GCGR agonist activity EC50” value was 1.12 nM.
For B3, the “GCGR agonist activity EC50” value was 1.15 nM.
In the case of B4, the “GCGR agonist activity EC50” value is reported as 1.09 nM.
With B5 the “GCGR agonist activity EC50” value was 1.11 nM.
With B6 the “GCGR agonist activity EC50” value was 1.16 nM.
With B7 the “GCGR agonist activity EC50” value was 1.44 nM.
In the case of B8, the “GCGR agonist activity EC50” value is reported as 0.97 nM.
In the case of B9, the “GCGR agonist activity EC50” value is reported as 1.03 nM.
For B10, the “GCGR agonist activity EC50” value was 1.19 nM.
In the case of B11, the “GCGR agonist activity EC50” value is reported as 1.24 nM.

Molecular target: T1, human GLP-1 receptor
Experiment: cell-based or functional assay
Remark: another data set of the same source
B12 was tested, and the “GLP-1R agonist activity EC50” value was 2.01 nM.
With B13 the “GLP-1R agonist activity EC50” value was 2.13 nM.
B14 was tested, and the “GLP-1R agonist activity EC50” value was 13.7 nM.

Molecular target: Glucagon receptor
Experiment: cell-based or functional assay
Remark: another data set of the same source
With B12 the “GCGR agonist activity EC50” value was 1.88 nM.
For B13, the “GCGR agonist activity EC50” value was 1.78 nM.
For B14, the “GCGR agonist activity EC50” value was 21.2 nM.

What follows are binders tested against FGFR/β-Klotho receptor complex (assay: cell-based or functional assay).
B15 was tested, and the “FGF21 activity EC50 (luciferase reporter)” value (from here on “FGF21 activity EC50”) was 1.67 nM.
For B16, the “FGF21 activity EC50” value was 0.83 nM.
In the case of B17, the “FGF21 activity EC50” value is reported as 0.91 nM.
B18 was tested, and the “FGF21 activity EC50” value was 1.67 nM.
B19 was tested, and the “FGF21 activity EC50” value was 1.36 nM.
In the case of B20, the “FGF21 activity EC50” value is reported as 0.96 nM.
For B21, the “FGF21 activity EC50” value was 1.08 nM.
In the case of B22, the “FGF21 activity EC50” value is reported as 0.48 nM.
With B23 the “FGF21 activity EC50” value was 0.71 nM.

Molecular target: T1, human GLP-1 receptor
Experiment: cell-based or functional assay
Remark: another data set of the same source
For B15, the “GLP-1R agonist activity EC50” value was 1.36 nM.
With B16 the “GLP-1R agonist activity EC50” value was 2.28 nM.
In the case of B17, the “GLP-1R agonist activity EC50” value is reported as 4.36 nM.
In the case of B18, the “GLP-1R agonist activity EC50” value is reported as 9.56 nM.
With B19 the “GLP-1R agonist activity EC50” value was 6.67 nM.
In the case of B20, the “GLP-1R agonist activity EC50” value is reported as 8.82 nM.
B21 was tested, and the “GLP-1R agonist activity EC50” value was 9.65 nM.

Molecular target: Glucagon receptor
Experiment: cell-based or functional assay
Remark: another data set of the same source
B15 was tested, and the “GCGR agonist activity EC50” value was 1.11 nM.
B16 was tested, and the “GCGR agonist activity EC50” value was 2.3 nM.
For B17, the “GCGR agonist activity EC50” value was 3.24 nM.
In the case of B18, the “GCGR agonist activity EC50” value is reported as 5.61 nM.
B19 was tested, and the “GCGR agonist activity EC50” value was 7.34 nM.
With B20 the “GCGR agonist activity EC50” value was 6.49 nM.
B21 was tested, and the “GCGR agonist activity EC50” value was 6.57 nM.

— patent US20210070829A1 (ZHEJIANG DOER BIOLOGICS, published 2021)
